Hit rate of the full screen: of about 310,000 compounds, about 14,000 (4.5%) showed an effect of 50% or more. Effects have a minus sign here. The list shows a part of the results.
Each molecule was assayed against human ether-à-go-go-related gene (hERG) potassium channel (human, UniProt Q12809) (assay: primary screen, population patch clamp on CHO cells stably expressing hERG).
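Note: peak tail current of the secondary pulse compared with the same well before compound.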

Sequence of human ether-à-go-go-related gene (hERG) potassium channel (Q12809 whole entry, looked up): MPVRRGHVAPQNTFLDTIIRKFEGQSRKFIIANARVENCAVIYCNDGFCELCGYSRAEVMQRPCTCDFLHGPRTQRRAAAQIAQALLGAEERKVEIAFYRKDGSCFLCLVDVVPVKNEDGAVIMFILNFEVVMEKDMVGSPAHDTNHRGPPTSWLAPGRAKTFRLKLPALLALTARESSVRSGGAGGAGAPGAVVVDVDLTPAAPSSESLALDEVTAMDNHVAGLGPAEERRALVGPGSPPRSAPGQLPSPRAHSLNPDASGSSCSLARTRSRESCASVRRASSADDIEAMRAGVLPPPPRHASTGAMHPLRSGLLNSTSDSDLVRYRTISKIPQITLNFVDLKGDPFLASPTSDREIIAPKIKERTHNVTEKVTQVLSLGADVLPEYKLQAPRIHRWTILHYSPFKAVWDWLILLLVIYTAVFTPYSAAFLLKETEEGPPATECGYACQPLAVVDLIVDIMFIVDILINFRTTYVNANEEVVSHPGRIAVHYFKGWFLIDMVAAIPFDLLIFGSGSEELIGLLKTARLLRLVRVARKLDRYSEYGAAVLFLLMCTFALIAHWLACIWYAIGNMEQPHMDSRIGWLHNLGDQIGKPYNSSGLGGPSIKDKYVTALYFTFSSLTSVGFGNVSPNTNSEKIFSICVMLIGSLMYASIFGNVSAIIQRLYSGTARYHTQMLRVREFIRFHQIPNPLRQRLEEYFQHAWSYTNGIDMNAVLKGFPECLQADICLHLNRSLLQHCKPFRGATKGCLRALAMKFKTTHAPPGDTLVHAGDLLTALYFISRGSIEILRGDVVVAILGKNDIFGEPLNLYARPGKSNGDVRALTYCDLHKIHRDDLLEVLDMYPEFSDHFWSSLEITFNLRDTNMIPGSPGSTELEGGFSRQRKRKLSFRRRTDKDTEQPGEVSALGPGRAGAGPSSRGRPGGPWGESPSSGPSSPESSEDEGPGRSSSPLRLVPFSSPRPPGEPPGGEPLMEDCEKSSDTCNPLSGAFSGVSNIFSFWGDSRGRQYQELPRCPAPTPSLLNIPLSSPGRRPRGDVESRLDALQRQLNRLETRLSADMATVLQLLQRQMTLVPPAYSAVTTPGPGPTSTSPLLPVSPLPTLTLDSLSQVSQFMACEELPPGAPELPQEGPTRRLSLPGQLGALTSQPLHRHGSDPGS

Going from `O=C(O)CC(Cc1ccc(Cl)cc1)C(=O)Nc1ccc([N+](=O)[O-])cc1` (stereo not drawn) to `Cc1ccc(NC(=O)N2CCC(O)(c3ccc(Cl)cc3)CC2)cc1`, the “hERG current change (%, negative = inhibition) at 10uM” value falls from 14.5% to -13.8%.

Going from `CCn1c(=S)[nH]c2cc(Cl)ccc21` to `CCOC(=O)C1CCN(C(=O)c2[nH]c3ccc(OC)cc3c2C)CC1`, the “hERG current change (%, negative = inhibition) at 10uM” value falls from 11.5% to 1.55%.

Going from `COc1ccc(C(=O)OCC(=O)N2CCCC2=O)c(OC)c1` to `COC(=O)c1sc(NC(=O)COc2ccc(OC)cc2)nc1C`, the “hERG current change (%, negative = inhibition) at 10uM” value falls from 22.2% to 6.37%.

Going from `CCCNc1c(NS(=O)(=O)c2ccc(C(C)(C)C)cc2)c(=O)oc2ccccc12` to `COc1ccc(OC)c(CCNC(=O)CS(=O)(=O)Cc2nc(-c3ccccc3C)oc2C)c1`, the “hERG current change (%, negative = inhibition) at 10uM” value falls from 10.8% to -11.4%.

First: Cc1cccc(OCC2CCCN(Cc3nc(C4CC4)no3)C2)c1 (stereo not drawn)
Second: Cc1ccc(N2CC(C(=O)N3CCC(c4nc5ccccc5[nH]4)CC3)CC2=O)cc1C (stereo not drawn)
The “hERG current change (%, negative = inhibition) at 10uM” value of the first is higher: 3.87% for the first, -46.2% for the second.

Compared with `OC(CNCCc1ccc(Cl)cc1)COCc1ccco1` (stereo not drawn), `COc1ccc(CC(=O)NCc2ccco2)cc1OC` is higher in “hERG current change (%, negative = inhibition) at 10uM” value: -44.6% for the first, 13.4% for the second.

Going from `CCc1ccc(CN/C=C/C(=O)c2ccc(Br)cc2)cc1` to `COc1ccc(C(=O)Nc2ccc(NC(=O)c3ccco3)cc2)cc1`, the “hERG current change (%, negative = inhibition) at 10uM” value rises from -1.34% to 11.6%.

Compared with `Cc1ccc(-c2cc(-c3ccc(F)cc3)nc(N)c2C#N)o1`, `COc1ccc(-c2cc(C(F)F)n3ncc(C(=O)NCC4CCCO4)c3n2)cc1` (stereo not drawn) is lower in “hERG current change (%, negative = inhibition) at 10uM” value: 9.35% for the first, 0.12% for the second.

Going from `CCOC(=O)c1cnc(SCC(=O)N2CCC(C(N)=O)CC2)nc1N` to `CC1CCN(C(=O)c2ccccc2SCC(=O)NCC2CCCCC2)CC1`, the “hERG current change (%, negative = inhibition) at 10uM” value falls from 12.7% to -22.2%.

Compared with `Cc1ccnc(NS(=O)(=O)c2cnc(Cl)c(Br)c2)c1`, `O=C(COc1ccc(Cl)cc1Br)Nc1cccc(S(=O)(=O)N2CCCC2)c1` is higher in “hERG current change (%, negative = inhibition) at 10uM” value: -9.39% for the first, 8.97% for the second.

Going from `O=C(CSc1ncn[nH]1)NC1CCCc2ccccc21` (stereo not drawn) to `O=C(CSc1nccn1-c1ccccc1)N1CCc2ccccc21`, the “hERG current change (%, negative = inhibition) at 10uM” value falls from 20% to -24.8%.

Compared with `COc1ccc(CCNC(=O)CSc2nnc(-c3cccc(F)c3)o2)cc1OC`, `Cc1occc1-c1nnc(SCC(=O)Nc2nc3ccccc3s2)o1` is lower in “hERG current change (%, negative = inhibition) at 10uM” value: 11.7% for the first, 5.03% for the second.

First: COC(=O)c1cc(S(=O)(=O)N2CCCC(C)C2)c[nH]1 (stereo not drawn)
Second: CN1CCN(C(=S)Nc2cccc(S(=O)(=O)N(C)C)c2)CC1
The “hERG current change (%, negative = inhibition) at 10uM” value of the first is lower: 2.71% for the first, 21.4% for the second.

Going from `CS(=O)(=O)N(CC(=O)Nc1ccc(Cl)c(Cl)c1)C1CCCCC1` to `COc1ccc(-n2ccnc(SCC(=O)NC3CCCC3)c2=O)cc1OC`, the “hERG current change (%, negative = inhibition) at 10uM” value rises from -16.7% to 21.2%.

First: O=C(Nc1cccnc1)c1ccc(COc2cc(Cl)ccc2Cl)o1
Second: O=C(CC1C(=O)NCCN1Cc1ccc(-c2ccccc2)cc1)NCCOc1cccnc1 (stereo not drawn)
The “hERG current change (%, negative = inhibition) at 10uM” value of the first is higher: 108% for the first, -25.9% for the second.

First: CNCCOCC(O)CSc1ccccc1 (stereo not drawn)
Second: CN(C)C(=O)N1CCC(C(=O)NCc2ccccc2)CC1
The “hERG current change (%, negative = inhibition) at 10uM” value of the first is higher: 12.5% for the first, 8.76% for the second.

Going from `COc1cc(Cl)c(C)cc1NC(=O)COC(=O)C(NS(=O)(=O)c1ccc(Cl)cc1)C(C)O` (stereo not drawn) to `CCOC(=O)C1=C(c2ccccc2)NC(=O)NC1c1cc(Cl)c(O)c(OC)c1` (stereo not drawn), the “hERG current change (%, negative = inhibition) at 10uM” value falls from 3.83% to -7.16%.

First: COC(=O)c1sccc1NC(=O)c1ccc(Br)s1
Second: CCOc1ccc(NC(=O)NNC(=O)c2cc3ccccc3cc2O)cc1
The “hERG current change (%, negative = inhibition) at 10uM” value of the first is higher: 17% for the first, 11.2% for the second.

Going from `O=C([C@@H]1CCCN1C(=O)c1cccs1)N1CCN(S(=O)(=O)c2ccccc2F)CC1` to `O=S(=O)(c1ccccc1F)N1CCC(Oc2ccc(-n3cnnn3)cc2)CC1`, the “hERG current change (%, negative = inhibition) at 10uM” value falls from -18.8% to -44.5%.

Going from `CCN(CC)c1nc(N)c(C#N)c(CC#N)c1C#N` to `CCn1cnc2c(NCCc3cccnc3)nc(C#N)nc21`, the “hERG current change (%, negative = inhibition) at 10uM” value rises from -9.69% to 16.5%.

Compared with `O=C(NCCc1c[nH]c2ccccc12)c1ccc2c(c1)OCO2`, `Cc1ccccc1C(=O)NC(=S)Nc1ccccc1N1CCCC1` is lower in “hERG current change (%, negative = inhibition) at 10uM” value: 7.05% for the first, -2.78% for the second.

Going from `COc1cc(-c2c(-c3ccsc3)sc3ccccc23)cc(OC)c1OC` to `COc1cc2c(cc1OC)C(c1ccc([N+](=O)[O-])cc1)NC(=O)C2` (stereo not drawn), the “hERG current change (%, negative = inhibition) at 10uM” value falls from 4.46% to -9.96%.

Compared with `CCN1CCc2c(OCC(=O)N3CCCCC3)cccc2C1=O`, `O=S(=O)(c1cccc2cccc(Cl)c12)N1CCCC1` is lower in “hERG current change (%, negative = inhibition) at 10uM” value: 5.33% for the first, -2.56% for the second.

Going from `Cc1cc(C)c2nc(C)cc(N/N=C/c3ccc(O)cc3)c2c1` to `COc1cccc(-n2c(O)c(C=Nc3c(C)n(C)n(-c4ccccc4)c3=O)c(=O)[nH]c2=O)c1`, the “hERG current change (%, negative = inhibition) at 10uM” value rises from -33.7% to 24.1%.

First: c1ccc(NC2=Nc3ccccc3CC2)cc1
Second: CC[n+]1c(/C=C/C=C/N(C(C)=O)c2ccccc2)sc2ccccc21.[I-]
The “hERG current change (%, negative = inhibition) at 10uM” value of the first is higher: -12.7% for the first, -69.8% for the second.

Going from `CN1CCN(/N=C/c2cccc(Cl)c2Cl)CC1.Cl` to `Cc1nc(-c2ccc(S(=O)(=O)N3CCCN(CCc4ccccc4)CC3)s2)cs1`, the “hERG current change (%, negative = inhibition) at 10uM” value falls from 6.09% to -10.6%.

Compared with `O=C(C1CCN(S(=O)(=O)N2CCC3(CC2)OCCO3)CC1)N1CCC(Cc2ccccc2)CC1`, `O=C(Oc1ccc(-c2ccccc2)cc1)N1CCOCC1` is higher in “hERG current change (%, negative = inhibition) at 10uM” value: -44.9% for the first, 5.6% for the second.

Going from `CC(OC(=O)c1ccc(-n2cnnn2)cc1)C(=O)Nc1ccc(F)c(F)c1F` (stereo not drawn) to `COc1ccc(-c2cc(=O)oc3cc(OC(C)C(=O)NC(Cc4c[nH]c5ccc(O)cc45)C(=O)O)ccc23)cc1` (stereo not drawn), the “hERG current change (%, negative = inhibition) at 10uM” value rises from -8.65% to 4.07%.

For `COC(C(=O)Nc1ccnn1C1CCN(Cc2cccc(C)n2)CC1)c1ccccc1` (stereo not drawn), the “hERG current change (%, negative = inhibition) at 10uM” value was 14.6%.

— publication PMC4336329 (PLoS ONE, 2015)
